# Several values for one entry are separate records, joined by “and”; a condition that tells them apart may be missing. Equal entries are not always repeated. The full ranking holds about 5,400 compounds; the median of “IFI” is about 2, and the highest 2% start at about 22. The list shows a part of the results.
# Assay: NOVARTIS: Inhibition Frequency Index (IFI) - the number of HTS assays where a compound showed > 50% inhibition/induction, expressed as a percentage of the number of assays in which the compound was tested.
# Type: functional
row,Structure (SMILES),IFI
1,O=C(CN1CCCC1)N1N=C(c2cccs2)CC1c1ccc(F)cc1 (centres undefined),0%
2,CSc1nc(N)c2c3c(sc2n1)CCCC3,1.19%
3,COc1ccc(S(=O)(=O)N2CCC(c3nnc(-c4ccccc4OC)o3)CC2)cc1,0%
4,CCOC(=O)N1CCN(S(=O)(=O)c2ccc(C(=O)Nc3sc4c(c3C(N)=O)CCN(CC)C4)cc2)CC1,1.21%
5,CN(CCCNc1ccnc2cc(Cl)ccc12)C(=O)c1ccc(F)cc1,0.935%
6,c1ccc(CSc2nnc3c(n2)[nH]c2ccccc23)cc1,0% and 3.82%
7,CCN(CC)c1nc(Nc2cc(C)ccc2C)nc(Nc2ccccc2O)n1,0%
8,COc1ccc(CN(Cc2cc3cc(OC)c(OC)cc3[nH]c2=O)C(=S)NCCc2ccc(OC)c(OC)c2)cc1,5.41%
9,COc1cc(NC(=O)Cn2ncc3c(=O)oc4ccccc4c32)cc(OC)c1OC,0%
10,Cc1ncc([N+](=O)[O-])n1CCOC(=O)NC(Nc1ccc(Br)cc1)C(Cl)(Cl)Cl (centres undefined),0%
11,Cn1c(=O)c(Cl)c2c3c(c(Cl)ccc31)C(=O)c1ccccc1-2,3.03%
12,COC(=O)C[S+]([O-])c1ccccc1 (centres undefined),2.1%
13,COc1ccc(CC(=O)NCCCCNc2ccnc3cc(Cl)ccc23)cc1,1.87%
14,CCCC(=O)NC(c1cccc([N+](=O)[O-])c1)c1ccc2cccnc2c1O (centres undefined),11.9%
15,CCN1CCN(C(=O)Nc2ccc(Cc3ccc(NC(=O)N4CCN(CC)CC4)cc3)cc2)CC1,1.12%
16,Cc1ccc(-c2cc3c(nn2)-c2ccccc2C3=O)cc1,11.6%
17,OC(CNC1CCCCC1)Cn1c2ccc(Br)cc2c2cc(Br)ccc21 (centres undefined),5.3%
18,Nc1cc(C(=O)Nc2cccc(C3=NCCN3)c2)ccc1C(=O)Nc1cccc(C2=NCCN2)c1,2.68%
19,CCOc1ccc2[nH]c(=O)c(C(c3nnnn3CCOC)N3CCCC3)cc2c1 (centres undefined),0%
20,Oc1c(C(Nc2ccccn2)c2ccncc2)ccc2cccnc12 (centres undefined),15.4%
21,COc1cc(C(=O)NC(c2ccccc2Cl)c2cc(Cl)c3cccnc3c2O)cc(OC)c1OC (centres undefined),0%
22,c1ccc(CSc2nc3ccncc3[nH]2)cc1,0%

row,Structure (SMILES),IFI
1,COC(=O)C(Nc1ccc(Cl)c(Cl)c1)(c1cc(C)c(O)c(C)c1)C(F)(F)F (centres undefined),0%
2,COc1cccc(CNCCCCCCCCCCCCNCc2cccc(OC)c2O)c1O,6.01%
3,COc1ccc(C2CC(=O)C3=C(C2)NC(C)=C(C(=O)OC2CCCCC2)C3c2cccc(C)c2)cc1OC (centres undefined),6.52%
4,CC1CCCCN1CCCNc1ncc(C(=O)NCc2ccccc2)c(NC2CCCC2)n1 (centres undefined),0.943%
5,Cc1ccnc(NC(c2ccc3ccccc3c2)c2ccc3cccnc3c2O)c1 (centres undefined),0%
6,CCOC(=O)c1c(NC(=O)c2cccnc2)sc(C)c1CC,0%
7,COC(=O)c1c(S(=O)(=O)NCc2cccc(Cl)c2)sc2c1CCN(C(=O)C1CCCO1)C2 (centres undefined),8.33%
8,CCN(CC)c1ccc(/C=C/c2ccc3ccc(OC)cc3[n+]2CC)cc1,17.1%
9,O=C(NCCc1ccccc1)c1cnc(NCCCn2ccnc2)nc1Nc1ccccc1,2.86%
10,CCc1n(C)c2ccccc2[n+]1CC(=O)c1ccc(Br)cc1,0%
11,O=C(c1ccncc1)N1N=C(C(F)(F)F)CC1(O)c1cccc([N+](=O)[O-])c1 (centres undefined),0%
12,Nc1nonc1-n1nnc(C(=O)NN=Cc2cccc(Cl)c2)c1-c1ccccc1,0%
13,CCCCN(CCCC)CCCNc1ncnc2c1[nH]c1ccc(Cl)cc12,4.88%
14,COc1cncc(-c2cncc(-c3ccc(Oc4ccccc4)cc3)n2)c1,0%
15,COc1cccc(NC(=O)Cn2c(C)c(C#N)c3ccccc32)c1,0%
16,COc1ccccc1CNC(=O)CCC1N=C2c3ccccc3N=C(SCC(=O)Nc3ccc(F)cc3)N2C1=O (centres undefined),6.67%
17,Cc1c(C#N)c2ccccc2n1CC(=O)NCCc1ccccc1,0%
18,CCOC(=O)C1=C(CC)NC2=C(C(=O)CC(C)(C)C2)C1c1ccc(Br)cc1 (centres undefined),0%
19,COC(=O)c1c(-c2c(F)cccc2Cl)noc1/C=C/Nc1ccccc1,4%
20,O=C(Cn1ccc(=NCc2ccccc2)cc1)c1ccc(I)cc1,3.03%
21,CC1Cc2ccccc2N1C(=O)Cn1c(=O)oc2ccccc21 (centres undefined),0%
22,FC(F)(F)c1cccc(C=NNc2nc3ccccc3[nH]2)c1,0%

row,Structure (SMILES),IFI
1,CCOC(=O)C1CSC(c2ccc(C(F)(F)F)cc2)N1C(=O)/C=C/c1ccccc1 (centres undefined),2.83%
2,COc1cncc(-c2cncc(-c3ccc(C)cc3)n2)c1,4.17%
3,CCN(CC)[P+](N(C)C[Si](C)(C)C)(N(CC)CC)N(CC)CC,9.09%
4,N#Cc1c(-c2ccccc2)cc(N2CCN(Cc3ccc(Cl)cc3)CC2)n2c1nc1ccccc12,7.5%
5,Cc1c(C(=O)N2CCC(C)CC2)sc2ncn(CC(=O)N3CCN(c4ccccn4)CC3)c(=O)c12,0%
6,Cc1ccc(C2(C)CC(C)(C)N(C(=O)Cc3ccccc3)c3ccc(C(c4ccccc4)(c4ccccc4)c4ccccc4)cc32)cc1 (centres undefined),0%
7,COc1ccccc1C(=O)Oc1ccccc1-c1nc2ccccn2c1NC(C)(C)CC(C)(C)C,3.77%
8,Cc1nc2c(C)cccc2c(O)c1CC=C(Cl)Cl,7.14%
9,COc1ccc(CCNc2nc(NCCCN3CCCCC3C)ncc2C(=O)NCC(C)C)cc1OC (centres undefined),2.86%
10,O=C(CCl)NCCOc1ccc(Cl)cc1Cl,7.69%
11,CN(CCCNc1ccnc2cc(Cl)ccc12)S(=O)(=O)c1ccc2ccccc2c1,10.2%
12,CCN1CCN(c2cc(C)c3cc(NC(=O)/C=C/c4sccc4C)ccc3n2)CC1,7.69%
13,Cn1nc(C(F)(F)F)c(C(=O)Nc2ccc(Cl)cc2)c1Sc1ccc(Cl)cc1,4.11%
14,COc1ccc(C(NC(=O)c2cccc(OC)c2)c2cc(Cl)c3cccnc3c2O)cc1 (centres undefined),0%
15,O=C1CN(C(=O)c2cc([N+](=O)[O-])c(N3CCCCC3)c([N+](=O)[O-])c2N2CCCCC2)c2ccccc2N1,0%
16,CC(=O)Nc1ccc(NC(=O)C(C)(C)CCl)cc1,2.53%
17,COC(=O)c1sc2nc(CN3CCCC(C)C3)ccc2c1NC(=O)c1ccc(C)s1 (centres undefined),0.87%
18,N=C1NC(=O)/C(=C/C=C/c2ccc([N+](=O)[O-])o2)S1,9.68%
19,COc1cccc(CN2CCC(O)(c3ccc4oc(C(=O)Nc5ccc(Cl)cc5)cc4c3)CC2)c1,3.81%
20,Fc1ccc(-c2c[n+](Cc3ccc(Cl)cc3Cl)c3n2CCC3)cc1,4.76%

# — ChEMBL document CHEMBL1156829
